From article PMC10166177 come the findings set out here.

Amino acid sequences for entries named in this document (tags omitted).
UniProt Q91VC3: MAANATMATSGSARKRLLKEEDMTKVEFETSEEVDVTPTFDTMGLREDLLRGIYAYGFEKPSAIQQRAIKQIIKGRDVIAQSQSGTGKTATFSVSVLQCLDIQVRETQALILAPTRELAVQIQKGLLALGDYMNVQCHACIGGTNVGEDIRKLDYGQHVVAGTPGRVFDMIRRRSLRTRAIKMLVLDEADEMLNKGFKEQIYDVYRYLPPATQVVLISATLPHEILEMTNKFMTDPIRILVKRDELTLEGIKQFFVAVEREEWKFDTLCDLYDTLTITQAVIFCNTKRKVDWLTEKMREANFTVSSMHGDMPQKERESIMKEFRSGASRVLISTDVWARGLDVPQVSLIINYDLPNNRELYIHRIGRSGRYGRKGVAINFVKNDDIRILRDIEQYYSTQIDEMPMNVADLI
UniProt O35691: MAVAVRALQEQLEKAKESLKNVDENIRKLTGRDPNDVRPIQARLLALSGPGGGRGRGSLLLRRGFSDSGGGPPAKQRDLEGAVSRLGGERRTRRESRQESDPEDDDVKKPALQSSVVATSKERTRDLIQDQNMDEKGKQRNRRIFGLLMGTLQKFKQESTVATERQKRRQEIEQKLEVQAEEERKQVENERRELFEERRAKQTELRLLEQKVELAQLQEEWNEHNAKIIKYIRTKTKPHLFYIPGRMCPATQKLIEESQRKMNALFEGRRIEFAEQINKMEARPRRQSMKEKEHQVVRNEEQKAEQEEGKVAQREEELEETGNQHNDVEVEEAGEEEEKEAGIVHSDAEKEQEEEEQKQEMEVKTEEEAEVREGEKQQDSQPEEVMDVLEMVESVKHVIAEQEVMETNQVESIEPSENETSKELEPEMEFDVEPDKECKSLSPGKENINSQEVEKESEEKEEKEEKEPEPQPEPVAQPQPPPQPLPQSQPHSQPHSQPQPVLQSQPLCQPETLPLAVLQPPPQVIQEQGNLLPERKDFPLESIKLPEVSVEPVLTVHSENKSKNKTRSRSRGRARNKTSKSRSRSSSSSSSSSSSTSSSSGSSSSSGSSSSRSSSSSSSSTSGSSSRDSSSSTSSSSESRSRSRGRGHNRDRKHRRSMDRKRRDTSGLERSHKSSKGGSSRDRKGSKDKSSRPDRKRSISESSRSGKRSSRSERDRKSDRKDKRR

These are yes or no findings as the source states them, for the method shown. Binding seen in cells or lysates may run through a third protein. Some results given as binding are weak or reduced against the parent protein; the word gives no strength. Where a sequence is shown, tags or fusion partners need not be part of it.

T1: tagged SNIP1 (UniProt Q8BIZ6)
T1 sequence: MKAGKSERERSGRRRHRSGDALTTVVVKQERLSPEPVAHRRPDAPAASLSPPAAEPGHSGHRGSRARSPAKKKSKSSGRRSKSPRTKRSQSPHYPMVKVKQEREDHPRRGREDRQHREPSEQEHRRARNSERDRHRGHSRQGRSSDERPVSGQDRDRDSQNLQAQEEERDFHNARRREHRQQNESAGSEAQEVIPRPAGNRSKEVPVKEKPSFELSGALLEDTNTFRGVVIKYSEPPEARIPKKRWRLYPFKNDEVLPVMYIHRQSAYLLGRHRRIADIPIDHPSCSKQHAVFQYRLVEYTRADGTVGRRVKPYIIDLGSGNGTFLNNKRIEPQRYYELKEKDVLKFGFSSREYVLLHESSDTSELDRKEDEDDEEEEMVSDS

T2: Flag-tagged full-length SNIP1 (Smad Nuclear Interacting Protein 1) (UniProt Q8BIZ6)
T2 sequence: T1 sequence

B1: Syf1 (protein, UniProt Q9DCD2 1-855)
chain: MVVMARVPRSERPDLVFEEEDLPYEEEIMRNQFSVKCWLRYIEFKQGAPKPRLNQLYERALKLLPCSYKLWYRYLKARRAQVKHRCVTDPAYEDVNNCHERAFVFMHKMPRLWLDYCQFLMDQGRVTHTRRTFDRALRALPITQHSRIWPLYLRFLRSHPLPETAVRGYRRFLKLSPESAEEYIEYLKSSDRLDEAAQRLATVVNDERFVSKAGKSNYQLWHELCDLISQNPDKVQSLNVDAIIRGGLTRFTDQLGKLWCSLADYYIRSGHFEKARDVYEEAIRTVMTVRDFTQVFDSYAQFEESMIAAKMETASELGREEEDDVDLELRLARFEQLISRRPLLLNSVLLRQNPHHVHEWHKRVALHQGRPREIINTYTEAVQTVDPFKATGKPHTLWVAFAKFYEDNGQLDDARVILEKATKVNFKQVDDLASVWCQCGELELRHENYDEALKLLRKATALPARRAEYFDGSEPVQNRVYKSLKVWSMLADLEESLGTFQSTKAVYDRILDLRIATPQIVINYAMFLEEHKYFEESFKAYERGISLFKWPNVSDIWSTYLTKFISRYGGRKLERARDLFEQALDGCPPKYAKTLYLLYAQLEEEWGLARHAMAVYDRATRAVEPAQQYDMFNIYIKRAAEIYGVTHTRGIYQKAIEVLSDEHAREMCLRFADMECKLGEIDRARAIYSFCSQICDPRTTGAFWQTWKDFEVRHGNEDTIREMLRIRRSVQATYNTQVNFMASQMLKVSGSATGTVSDLAPGQSGMDDMKLLEQRAEQLAAEAERDQPPRAQSKIFFVRSDASREELAELAQQANPEEIQLGEDEDEDEMDLEPNEVRLEQQSVPAAVFGSLKED
B2: SF3a66 (protein, UniProt Q62203 1-475)
chain: MDFQHRPGGKTGSGGVASSSESNRDRRERLRQLALETIDINKDPYFMKNHLGSYECKLCLTLHNNEGSYLAHTQGKKHQTNLARRAAKEAKEAPAQPAPEQVKVEVKKFVKIGRPGYKVTKQRDTEMGQQSLLFQIDYPEIAEGIMPRHRFMSAYEQRIEPPDRRWQYLLMAAEPYETIAFKVPSREIDKAEGKFFFLQFHFKMEKPPAPPSLPAGPPGVKRPPPPLMNGLPPRPPLPDALPPPPPGGLPLPPMPPTGPAPSGPPGPPQMPPPAPGVHPPAPVVHPPTSGVHPPAPGVHPPAPVVHPPTSGVHPPAPGVHPPTPGVHPPAPGVHPPAPGVHPPAPGVHPPTPGVHPPAPGVHPPAPGVHPPAPGVHPPPSAGVHPQAPGVHPPAPAVHPQAPGVHPPAPGIHPQAPGVHPQPPPGVHPAAPGVHPQPPGVHPSNPGVHPAPMPPMLRPPLPSDGPGNMPPPPPGN
B3: SF3a60 (protein, UniProt Q9D554 1-501)
chain: METILEQQRRYHEEKERLMDVMAKEMLTKKSTLRDQINSDHRTRAMQDRYMEVSGNLRDLYDDKDGLRKEELNAISGPNEFAEFYNRLKQIKEFHRKHPNEICVPMSVEFEELLKARENPSEEAQNLVEFTDEEGYGRYLDLHDCYLKYINLKASEKLDYITYLSIFDQLFDIPKERKNAEYKRYLEMLLEYLQDYTDRVKPLQDQNELFGKIQTDFEKKWDNGTFPGWPKETSSALTHAGAHLDLSAFSSWEELASLGLDRLKSALLALGLKCGGTLEERAQRLFSTKGKSLESLDTSLFAKNPKSKGTKRDTERNKDIAFLEAQIYEYVEILGEQRQLTHENVQRKQARTGEEREEEEEEQISESESEDEENEIIYNPKNLPLGWDGKPIPYWLYKLHGLNINYNCEICGNYTYRGPKAFQRHFAEWRHAHGMRCLGIPNTAHFANVTQIEDAVSLWAKLKLQKASERWQPDTEEEYEDSSGNVVNKKTYEDLKRQGLL
B4: SF3b130 (protein, UniProt Q921M3 1-1217)
chain: MFLYNLTLQRATGISFAIHGNFSGTKQQEIVVSRGKILELLRPDPNTGKVHTLLTVEVFGVIRSLMAFRLTGGTKDYIVVGSDSGRIVILEYQPSKNMFEKIHQETFGKSGCRRIVPGQFLAVDPKGRAVMISAIEKQKLVYILNRDAAARLTISSPLEAHKANTLVYHVVGVDVGFENPMFACLEMDYEEADNDPTGEAAANTQQTLTFYELDLGLNHVVRKYSEPLEEHGNFLITVPGGSDGPSGVLICSENYITYKNFGDQPDIRCPIPRRRNDLDDPERGMIFVCSATHKTKSMFFFLAQTEQGDIFKITLETDEDMVTEIRLKYFDTVPVAAAMCVLKTGFLFVASEFGNHYLYQIAHLGDDDEEPEFSSAMPLEEGDTFFFQPRPLKNLVLVDELDSLSPILFCQIADLANEDTPQLYVACGRGPRSSLRVLRHGLEVSEMAVSELPGNPNAVWTVRRHIEDEFDAYIIVSFVNATLVLSIGETVEEVTDSGFLGTTPTLSCSLLGDDALVQVYPDGIRHIRADKRVNEWKTPGKKTIVKCAVNQRQVVIALTGGELVYFEMDPSGQLNEYTERKEMSADVVCMSLANVPPGEQRSRFLAVGLVDNTVRIISLDPSDCLQPLSMQALPAQPESLCIVEMGGTEKQDELGERGSIGFLYLNIGLQNGVLLRTVLDPVTGDLSDTRTRYLGSRPVKLFRVRMQGQEAVLAMSSRSWLSYSYQSRFHLTPLSYETLEFASGFASEQCPEGIVAISTNTLRILALEKLGAVFNQVAFPLQYTPRKFVIHPESNNLIIIETDHNAYTEATKAQRKQQMAEEMVEAAGEDERELAAEMAAAFLNENLPESIFGAPKAGNGQWASVIRVMNPIQGNTLDLVQLEQNEAAFSVAVCRFSNTGEDWYVLVGVAKDLILSPRSVAGGFVYTYKLVNNGEKLEFLHKTPVEEVPAAIAPFQGRVLIGVGKLLRVYDLGKKKLLRKCENKHIANYISGIQTIGHRVIVSDVQESFIWVRYKRNENQLIIFADDTYPRWVTTASLLDYDTVAGADKFGNICVVRLPPNTNDEVDEDPTGNKALWDRGLLNGASQKAEVIMNYHVGETVLSLQKTTLIPGGSESLVYTTLSGGIGILVPFTSHEDHDFFQHVEMHLRSEHPPLCGRDHLSFRSYYFPVKNVIDGDLCEQFNSMEPNKQKNVSEELDRTPPEVSKKLEDIRTRYAF
B5: CWC25 (protein, UniProt Q9DBF7 1-416)
chain: MGGGDLNLKKSWHPQTLRNVEKVWKAEQKHEAERKKIEELQRELREERAREEMQRYAEDVGAVKKKEEKLDWMYQGPGGMVNRDEYLLGRPIDKYVFEKMEEREAGCSSETGLLPGSIFAPSGANSLLDMASKIREDPLFIIRKKEEEKKREVLNNPVKMKKIKELLQMSLEKKEKKKKKEKKKKHRKHKHRSSSSGGSSSEDEQSQARSQKKMANSFPVLSKVPGYGLQVRDSDRNRGLQGSLGEQRAIKNNSRSRSSSPPRHASKKSTKEERPRDRRSRSPSRRSRSPRPSKPHTSKVNRKERDSPSPKKEAYQRRHASGYTRKLSAEELERKRQEMMENAKWREEERLNTLKRHAREDEREHRLERLDSRSGKFLHRMKLESASTSSLEDRVKRNIHSLQRTSVALEKNFMRR
B6: YJU2 (protein, UniProt Q9D6J3 1-314)
chain: MSERKVLNKYYPPDFDPSKIPKLKLPKDRQYVVRLMAPFNMRCKTCGEYIYKGKKFNARKETVQNEAYLGLPIFRFYIKCTRCLAEITFKTDPENTDYTMEHGATRNFQAEKLLEEEEKRVQKEREDEELNNPMKVLENRTKDSKLEMEVLENLQELKDLNQRQAHVDFEAMLRQHRMSQEQWQQQQEEEDERETAALLEEARHRRLLEDSESEDEAPPSRPRAAARPNPTAILNEVPQTKRKAEALCSKAQLAGLVVPKKVKTEANGASEQVGVPTAAGAPKSRKADNPTPQTPGTSSLSQLGAYGDSEDSDS
B7: SF3a120 (protein, UniProt Q8K4Z5 1-791)
chain: MQAGPVQAVPPPPPVATESKQPIEEEASSKEDPTPSKPVVGIIYPPPEVRNIVDKTASFVARNGPEFEARIRQNEINNPKFNFLNPNDPYHAYYRHKVSEFKEGKAQEPSAAIPKVMQQQQQATQQQLPQKVQAQVIQETIVPKEPPPEFEFIADPPSISAFDLDVVKLTAQFVARNGRQFLTQLMQKEQRNYQFDFLRPQHSLFNYFTKLVEQYTKILIPPKGLFSKLKKEAENPREVLDQVCYRVEWAKFQERERKKEEEEKEKERVAYAQIDWHDFVVVETVDFQPNEQGNFPPPTTPEELGARILIQERYEKFGESEEVEMEVESDEEDQEKAEETPSQLDQDTQVQDMDEGSDDEEEGQKVPPPPETPMPPPLPPTPDQVIVRKDYDPKASKPLPPAPAPDEYLVSPITGEKIPASKMQEHMRIGLLDPRWLEQRDRSIREKQSDDEVYAPGLDIESSLKQLAERRTDIFGVEETAIGKKIGEEEIQKPEEKVTWDGHSGSMARTQQAAQANITLQEQIEAIHKAKGLVPEDDTKEKIGPSKPNEIPQQPPPPSSATNIPSSAPPITSVPRPPAMPPPVRTTVVSAVPVMPRPPMASVVRLPPGSVIAPMPPIIHAPRINVVPMPPAAPPIMAPRPPPMIVPTAFVPAPPVAPVPAPAPMPPVHPPPPMEDEPPSKKLKTEDSLMPEEEFLRRNKGPVSIKVQVPNMQDKTEWKLNGQGLVFTLPLTDQVSVIKVKIHEATGMPAGKQKLQYEGIFIKDSNSLAYYNMASGAVIHLALKERGGRKK
B8: RNPS1-Myc (protein, UniProt Q99M28 1-305)
chain: MDLSGVKKKSLLGVKENNKKSSTRAPSPTKRKDRSDEKSKDRSKDKGATKESSEKDRGRDKTRKRRSASSGSSSTRSRSSSTSSSGSSTSTGSSSGSSSSSASSRSGSSSTSRSSSSSSSSGSPSPSRRRHDNRRRSRSKSKPPKRDEKERKRRSPSPKPTKVHIGRLTRNVTKDHIMEIFSTYGKIKMIDMPVERMHPHLSKGYAYVEFENPDEAEKALKHMDGGQIDGQEITATAVLAPWPRPPPRRFSPPRRMLPPPPMWRRSPPRMRRRSRSPRRRSPVRRRSRSPGRRRHRSRSSSNSSR
B9: tagged RNPS1 (protein, UniProt Q99M28 1-305)
chain: B8 chain

The target of the first experiment is T1, tagged SNIP1. Kind of experiment: co-IP; N2a cells expressing tagged SNIP1 and the indicated tagged proteins; bait not given.
Turning to eIF4AIII (from UniProt Q91VC3 1-411), the binding result is reported as “no binding”.

For the molecule B1, the binding entry is given as “binds”. On to B2, for which the binding result is “binds”. As to B3, the binding result was “binds”. Still for that read-out and setting: next, B4: “binds”. B5: the binding result is “no binding”. As for B6, the binding entry is given as “no binding”. On to B7, for which the binding result was “binds”.

The next experiment concerns the target T2, Flag-tagged full-length SNIP1 (Smad Nuclear Interacting Protein 1). Kind of experiment: co-IP; N2a cells expressing Flag-tagged full-length or ΔFHA SNIP1 together with RNPS1-Myc.
B8: the binding result is given as “binds”.

Another experiment concerns the target T1, tagged SNIP1. Kind of experiment: co-IP; N2a cells simultaneously expressing tagged PNN, SNIP1, and RNPS1; bait not given.
Turning to tagged PNN (from UniProt O35691 1-725), the binding result is recorded as “binds”.

B9: the binding result is reported as “binds”.
